Laboratory results taken from ChEMBL document CHEMBL4888484, “Replenishing the malaria drug discovery pipeline: Screening and hit evaluation of the MMV Hit Generation Library 1 (HGL1) against asexual blood stage Plasmodium falciparum ,using a nano luciferase reporter read-out” (2022).
In all, about 150,000 compounds went through this assay and about 540 (0.36%) showed an effect of 50% or more. The list shows a part of the results.

What follows are compounds tested on Plasmodium falciparum (assay: Primary screen in NF54 nanoGlo assay, in single point, at 2uM, 72h; a lower Z score goes with more inhibition). Conditions: timepoint 72 hour.
Assay type: functional, Erythrocyte

Row | Compound | % Inhibition [%] | Z score
1 | CC(C)NC(=O)N1CCC[C@H]1C(=O)N(C)Cc1cccc(N(C)C)c1 | 12 | -1.62
2 | Brc1ccc(C2(c3ccno3)CCOCC2)cc1 | -2 | 0.21
3 | COCCN(Cc1ccc(OC)c(OS(=O)(=O)c2ccc(F)cc2)c1)C(=O)c1ccc2c(c1)OCO2 | -2 | 0.22
4 | Cc1ccc2nc(O)c3nnc(C)n3c2c1 | 34 | -1.5
5 | CCN(CCO)C(=O)c1ccc(C#N)c(Cl)c1 | 9 | -1.33
6 | CC(C)C1C(C(=O)NCc2cccc(-n3cncn3)c2)CCN1C(=O)OC(C)(C)C (configuration not stated) | -8 | 1.16
7 | COC(=O)N1CCC[C@H](NC(=O)NCc2nc(C3CC3)no2)C1 | -16 | 1.97
8 | C[C@H]1CN(S(=O)(=O)Cc2ccccc2)CCN1c1cnccn1 | 8 | -1.07
9 | CC1(C)Cc2ccsc2CN1C(=O)c1cn2c(n1)CCC2 | -8 | 1.06
10 | Cc1ccccc1C(=O)NC(=O)Nc1ccc(-n2nc(-c3ccccc3)cc2C(F)(F)F)cc1 | 3 | -0.41
11 | O=S(=O)(NCc1cccn1Cc1ccc(Cl)cc1)c1ccc2ccccc2c1 | -16 | 1.56
12 | CC(C)c1csc(CN(CCO)Cc2nccn2C)n1 | -23 | 2.94
13 | CCCCS(=O)(=O)N1CC[C@H](CNc2nc(OC)ncc2Cl)C1 | -2 | 0.38
14 | Cn1cnc(C(=O)N2CCC[C@H](N(CCN3CCCC3)C(=O)C3CCC3)C2)c1 | 4 | -0.53
15 | COC(=O)C1CCc2nnc(C3Cc4ccccc4O3)n2CC1 (configuration not stated) | 2 | -0.32
16 | COC(=O)c1cc(C2CC2)nc2c1c(=O)n(Cc1ccc(C)cc1)c(=O)n2-c1ccccc1 | 3 | -0.36
17 | CC1CCCCC1CN1CC(O)(CC#N)C1 (configuration not stated) | 0 | 0.02
18 | CN1CCCN(C(=O)COCc2cc[nH]c(=O)c2)c2ccc(F)cc21 | -8 | 1.56
19 | Cn1c(=O)c2c(nc(-n3nc(-c4ccco4)cc3O)n2CCc2ccccc2)n(C)c1=O | -5 | 0.92
20 | CNC(=O)[C@H](CO)Nc1nccc(C(F)(F)F)n1 | -2 | 0.31
21 | O=C(OCn1cncn1)c1ccccc1O | -12 | 1.55
22 | Cc1nn(CCCNC(=O)c2ccc(-c3cc(O)nc(N)n3)cc2)c(C)c1C | -9 | 1.8

Row | Compound | % Inhibition [%] | Z score
23 | O=C(NCC1CCCO1)c1ccc(N2C(=O)C3CC=CCC3C2=O)cc1 (configuration not stated) | 9 | -1.19
24 | Cc1ccc(-n2nc(C(=O)N3CCCCC3)c3ncn(C)c(=O)c32)cc1 | -17 | 1.53
25 | Cc1ccc(S(=O)(=O)N2CCCC[C@H]2C2OCCO2)cc1F | -7 | 0.67
26 | CCCc1nn(-c2ccc(Cl)cc2)c(=O)n1CC(=O)NC(C)C | 12 | -1.64
27 | COC1(c2nc(-c3cc(C)ccn3)no2)CCCCC1 | -7 | 0.9
28 | O=C(CCNC1CCN([C@H]2CCOC2)CC1)Nc1cc(Cl)cc(Cl)c1 | 25 | -2.84
29 | CC(NC(=O)c1ccncc1)C(c1cccs1)N1CCN(C)CC1 (configuration not stated) | -15 | 2.32
30 | COc1ccc(CCC(=O)N2CC(n3ccnn3)C2)cc1 | -15 | 1.71
31 | C[C@@H](C1CC1)N(CCC#N)Cc1ccc(NS(C)(=O)=O)cc1 | -8 | 0.77
32 | O=C(c1ccc2c(c1)COC2)N1C[C@H](O)C2(CC2)C1 | 9 | -1.38
33 | O=C(N[C@H]1CCc2ccccc21)c1nc2n(n1)-c1ccccc1S(=O)(=O)N2 | 6 | -0.84
34 | CN(C(=O)CN(CC(=O)N(C)c1ccccc1)C1CCCC1)c1ccccc1 | 0 | -0.05
35 | COc1ccc(C2CN(C(=O)c3ccccc3Cl)CC2C(=O)NCC2CC2)c(OC)c1 (configuration not stated) | 3 | -0.33
36 | CC(=O)N1CCN(c2ncccc2CNC(=O)[C@H]2CC23CCCCC3)CC1 | -15 | 2.06
37 | CC[C@@]1(C(=O)NCCc2ccc(F)cc2)CCCN1 | -5 | 0.69
38 | CC(=O)c1cc(Br)c2ocnc2c1 | 2 | -0.26
39 | CCC(CC)C(=O)N[C@@H]1CCCC[C@@H]1n1cc(C(=O)O)nn1 | -11 | 2.07
40 | CC(=Cc1ccc(N(C)C(C)C)nc1)c1nc(C)c(C#N)c(=O)[nH]1 | -3 | 0.58
41 | CC(C)c1cc([C@@H]2CCCN2Cc2cccc(Br)c2)no1 | -11 | 1.96
42 | CCCCc1ccnc(NC(=O)NCc2nccn2CCCc2ccccc2)n1 | 8 | -1.16
43 | CCN(CC1CC1)C(=O)NCCC(C)(C)C | -7 | 1.08
44 | COC[C@H](C)n1ccc(NC(=O)NC(C)(C)c2nc3ccccc3s2)n1 | 5 | -0.83

Row | Compound | % Inhibition [%] | Z score
45 | CCCc1[nH]ncc1C(=O)N(C)CC(C)(C)C | -4 | 0.44
46 | O=C(N[C@H]1CCOC12CCCC2)c1ccc(F)c2ccncc12 | 1 | -0.12
47 | C=C(C)C[C@H](C)C(=O)NCc1cncc(OC)c1 | 16 | -2.06
48 | COc1ccc(CN(C)S(=O)(=O)c2ccc3c(c2)CCO3)cc1F | 8 | -1.45
49 | N#Cc1c2c(n(C[C@H]3CCCO3)c1NC(=O)CN1CCOCC1)CCCC2 | -4 | 0.6
50 | COC(=O)N[C@H](C(=O)Nc1cc(C(N)=O)n(C)c1)C(C)C | -2 | 0.31
51 | Nc1cncc(-n2ccnc2-c2ccccn2)c1 | -9 | 1.79
52 | Cc1cccnc1-c1noc([C@H]2OCC[C@H]2C(C)C)n1 | -7 | 1.35
53 | COc1ccc(-c2nn(-c3ccccc3F)cc2CNCCc2cn[nH]c2)cc1 | -20 | 1.76
54 | O=C(O)c1ccccc1CN1CCC(c2ccon2)CC1 | -15 | 2.94
55 | C[C@@H](c1ccon1)N(C)C(=O)c1cnc(-c2cccnc2)nc1O | 2 | -0.36
56 | C[C@@H](C(=O)NCC1CCN(Cc2ccccc2F)CC1)n1c2ccccc2c2cnn(C)c(=O)c21 | -12 | 1.18
57 | CCOc1cccnc1-c1nc(C(=O)NCc2ccc(F)cc2)no1 | -16 | 2.44
58 | CCNC(=O)N1Cc2nc[nH]c2C[C@H]1C(=O)NCc1ccccc1 | 31 | -3.47
59 | CCCCCN(C(=O)Nc1cccc(C#N)c1)[C@@H](C)CCC | -14 | 1.43
60 | CCC1(CC)Oc2ccc(N[C@@H](C)CCn3cncn3)cc2O1 | -9 | 0.8
61 | CCN(C(=O)c1ccn(C(C)C)n1)c1cccnc1C | -6 | 0.66
62 | O=C(Nc1nc(CN2CCCCCC2)cs1)c1cc2ccccc2o1 | -11 | 1
63 | NC(=O)Cn1ccnc1-c1ccccc1-c1ccccc1 | -5 | 0.63
64 | Cc1ccc(-n2nc(C(=O)N(C)Cc3nncn3C)c3c2CCC3)c(C)c1 | -2 | 0.35
65 | O=C(NCC(=O)N1CCN(c2ccccc2)CC1)c1cccs1 | -4 | 0.84
66 | COC(C)(C)CCCC(C)CCNCC1COCCO1 (configuration not stated) | 0 | -0.01

Row | Compound | % Inhibition [%] | Z score
67 | COc1ccc(CNC(=O)c2sc3ncnc(N4CCCCCC4)c3c2C)cc1 | 15 | -1.4
68 | COCCCN1CC[C@H](CNC(=O)c2cccc(-c3ccc(F)cn3)c2)C1 | -10 | 1.8
69 | C[C@@H](c1nnnn1C1CC1)N1CCC(C)(CN2CCN(C)CC2)CC1 | -5 | 0.67
70 | CCCC[C@@H](C(=O)Nc1cc(C)on1)N1CC(n2nc(C)cc2C)C1 | -3 | 0.56
71 | O=C(c1ccccn1)N1CCN(Cc2cccc(F)c2)[C@@H]2CS(=O)(=O)C[C@@H]21 | 2 | -0.36
72 | CCOC1CC(Nc2ncnc3c(C)cccc23)C1OC (configuration not stated) | -12 | 1.93
73 | CC1(C)CC(NC(=O)c2cccc(-c3ccc(F)cn3)c2)CC(C)(C)N1 | -4 | 0.54
74 | Cc1ccccc1[C@H]1C[C@@H]1C(=O)Nc1cccc(CC(=O)O)c1 | -16 | 2.98
75 | CCc1nc(C(C)C)nc(N2CCN(C(=O)c3cccs3)CC2)c1Cc1ccccc1F | -6 | 0.59
76 | CCCc1cc(N(C)CCc2cn[nH]c2)nc(C)n1 | 7 | -0.9
77 | Cc1nc(-c2ccc(C)c(S(=O)(=O)NC3CCCCCC3)c2)no1 | 0 | -0.06
78 | COc1ccc(S(=O)(=O)N[C@H]2CCC[C@@H](CO)C2)cc1Cl | -19 | 1.95
79 | Cc1noc(-c2cn(C(C)C)nc2C)n1 | -16 | 2.14
80 | O=C(NCCc1ccc2c(c1)OCO2)c1cnn(Cc2ccccc2)c1 | 6 | -1
81 | O=C(Cn1nc(-c2ccco2)c2sc(N3CCOCC3)nc2c1=O)Nc1ccc(F)cc1F | -1 | 0.14
82 | Cn1cc(C(=O)N2CCC(c3ccccc3)CC2)ccc1=O | -7 | 0.85
83 | c1ccc2[nH]c(CCn3ccnc3-c3ccncc3)nc2c1 | -11 | 1.54
84 | O=C1C[C@H]2CC[C@@H](CN1)N2S(=O)(=O)c1ccccc1 | 0 | -0.03
85 | CN(C)C[C@@H](O)CNC(=O)c1sccc1Cl | -19 | 1.65
86 | O=S(=O)(N[C@H]1CCc2nnc(-c3ccc(F)cc3)n2C1)c1cccnc1 | 32 | -4.61
